# Measured values as given in the supplement of paper PMC3334620.
# The full ranking holds about 33,000 sequences; the median of “E-score (-0.5 to 0.5)” is about -0.036, and the highest 2% start at about 0.37. Some of the results follow.
# Molecular target: T1, Yer064c (UniProt P40041)
# T1 sequence: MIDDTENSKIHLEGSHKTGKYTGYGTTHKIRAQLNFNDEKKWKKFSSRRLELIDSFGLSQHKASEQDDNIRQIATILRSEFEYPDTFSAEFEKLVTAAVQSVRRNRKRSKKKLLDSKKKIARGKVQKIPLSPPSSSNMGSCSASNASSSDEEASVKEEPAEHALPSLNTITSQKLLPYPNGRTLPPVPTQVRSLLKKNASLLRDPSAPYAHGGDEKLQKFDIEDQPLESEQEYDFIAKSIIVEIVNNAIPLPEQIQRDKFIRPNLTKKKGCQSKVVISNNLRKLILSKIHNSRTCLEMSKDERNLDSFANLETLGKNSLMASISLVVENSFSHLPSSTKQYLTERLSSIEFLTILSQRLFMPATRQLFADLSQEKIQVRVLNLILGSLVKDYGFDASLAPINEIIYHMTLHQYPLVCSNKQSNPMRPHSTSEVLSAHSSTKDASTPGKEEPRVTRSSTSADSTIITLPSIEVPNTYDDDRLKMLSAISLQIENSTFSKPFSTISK
# Test: PBM E-score (8-mer binding enrichment) (E-score (-0.5 to 0.5)); higher = stronger / more preferred TF binding; most listed sequences are background and not binding sites
# Settings: protein concentration: 200 nM; construct: GST-full length
# How it was run: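 PURExpress in vitro transcription/translation supplied GST-tagged yeast transcription factors, either full-length or DNA-binding domain. Applied at about 100-200 nM to universal all-10-mer Agilent arrays double-stranded by primer extension, the bound protein was detected with fluorescent anti-GST. E-scores, modified Wilcoxon-Mann-Whitney statistics, were given by the Universal PBM Analysis Suite to ungapped eight-base words pooled with their reverse complements after masliner normalisation.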
row,Sequence,PBM E-score
1,CCTTGCGC,-0.233
2,ACAGCAGA,-0.0985
3,CCAAAGGG,-0.035
4,GGACATCC,-0.414
5,TTAATGAA,0.0456
6,GCTTCCCA,-0.284
7,CTATCAAC,0.0323
8,ATATCGAT,0.0845
9,AAAGCTTC,-0.364
10,CTATGCTA,0.0143
11,ATGTTGAC,0.273
12,GAGTCTAC,0.285
13,CAGGGGGA,-0.263
14,GTTTCTAA,-0.00076
15,CAGTGCAA,0.106
16,GGCGTTTA,-0.0676
17,GTTTACTA,0.0459
18,CAAATTTG,0.13
19,TACACCCA,0.0364
20,ACCAGTCA,0.369
21,GTTGACGA,0.126
22,CACCATAC,-0.108
23,ATAAATTA,0.175
24,CCAATCCC,-0.277
25,CAACTCTC,-0.00777

row,Sequence,PBM E-score
1,CGTATGTC,0.036
2,ACTATCTC,0.212
3,AAGTTAAC,0.172
4,ATCGTTAA,0.0301
5,CTATTTTA,0.085
6,GTAATGTA,-0.0594
7,AGTGGTCC,-0.0197
8,CCTGGTAC,-0.0536
9,CCAACAAG,-0.187
10,CGTTACAG,0.00367
11,AGGGTTCA,0.0989
12,GTTACACA,0.272
13,ATCATGTC,0.27
14,ATAATAGG,-0.107
15,ACTGTACT,0.0382
16,CTCTATTA,0.0778
17,CAGAGGGG,-0.132
18,AAGGCTAG,-0.0501
19,ACCCTGTA,-0.189
20,CGTTGGCC,-0.304
21,TCGGGGAA,-0.156
22,CCCACGAC,0.135
23,AATTGAGC,0.0445
24,CCAACTCC,-0.102
25,CGGGTTAG,-0.123

row,Sequence,PBM E-score
1,AGTCCGCG,0.188
2,AAGGTCAG,0.0065
3,GGGAACAA,-0.216
4,CGAGGGAA,-0.0997
5,CTATTGGC,-0.216
6,GAGTGAGC,0.0867
7,AATTTCAC,-0.0484
8,ACTCGTCT,0.233
9,ACATCTTA,-0.0886
10,GCGGAGCA,-0.256
11,AAGCACTC,-0.189
12,CGCATAGC,-0.218
13,ACACTGTC,-0.178
14,ACGAAGAT,0.158
15,GAGAATTA,-0.167
16,AGAATCCA,-0.0782
17,ACCTCCGG,0.0501
18,AAGATATT,0.00236
19,GTATGTTA,0.0292
20,GATTAGTA,0.277
21,CGACTCGC,0.361
22,GATTAATA,0.325
23,TAAAACAA,0.107
24,GGGGAATA,-0.328
25,ATAACGAC,0.126

row,Sequence,PBM E-score
1,ACCAGACC,-0.0038
2,CCAACGAC,-0.0267
3,GTCTCAGA,0.241
4,CGATAAAC,-0.175
5,GTACCGTA,-0.186
6,ACTGACCT,0.159
7,CAAACGTA,0.0761
8,GATTGGGC,-0.0362
9,GGAAAACA,0.0344
10,CTCTATCA,-0.0639
11,ATGTTTTG,0.0323
12,CAGTACGG,0.0228
13,AGGCTACC,-0.0969
14,CGCTATAC,-0.175
15,GCTTGCCC,-0.427
16,GCGTCAGC,-0.304
17,AAATTGCA,-0.128
18,GTCTACGA,0.0977
19,AGTTGTCC,-0.122
20,ATTGAGTC,0.479
21,GTCTAACA,0.171
22,CGGAACGA,0.12
23,GCGCGATA,-0.104
24,AGGACAAA,0.0448
25,TGCAGAAA,-0.0306

row,Sequence,PBM E-score
1,TCGGGACA,0.0953
2,AGTAGGTG,0.0443
3,CATCTATC,-0.165
4,AAACCGCA,-0.057
5,GACCCTGA,0.00081
6,CACGTTCA,-0.235
7,CCCGGTTC,-0.00689
8,CCGGCTTA,-0.221
9,AAACCCGT,-0.274
10,CCCTACAG,-0.173
11,GATTCAGA,0.389
12,ACGCTTCA,-0.168
13,ATCTTCAC,0.0726
14,ACATATGT,-0.22
15,AGCTCCCC,-0.0935
16,ACAGCGGC,-0.133
17,CGATCTGA,0.125
18,ACGGTGTC,-0.112
19,CTCTCCAG,-0.183
20,GACCGCTC,-0.302
21,CATGGATC,0.0319
22,AGTATGCC,-0.109
23,CTAGCTCA,-0.0873
24,AGGAGCAA,-0.0586
25,CTGGTCGA,0.0583

row,Sequence,PBM E-score
1,AATTCGAA,0.0283
2,GATAGTTA,-0.0509
3,ACGGTTTC,-0.26
4,ACGTCTCA,0.0883
5,GCACATAC,-0.187
6,CACGTGAG,0.0942
7,CCGCAAAG,-0.0895
8,GCCCGATA,-0.117
9,CGTAGTAA,-0.0636
10,AATGCGAT,0.102
11,ACAGACGA,0.0376
12,AATCCAGG,-0.0276
13,TCCGAGCA,0.132
14,AAGATATG,0.235
15,GAAGGCAA,-0.216
16,ACCTAGCA,-0.218
17,CCAAAGGC,-0.251
18,AGCCAATC,-0.068
19,GCTATGAC,0.307
20,ACGTCAGC,-0.116
21,CCGTCACG,-0.199
22,GAGTGGAA,-0.0569
23,AGGGCCAA,-0.126
24,ACCCGCAC,-0.0905
25,TGATTGCA,0.307

row,Sequence,PBM E-score
1,GACAAATA,-0.106
2,AGGACTCG,0.306
3,CAGGGATC,-0.0249
4,AGGATTGC,-0.0952
5,AAATCCCG,-0.21
6,CAGACGGG,-0.211
7,ATGATATC,-0.171
8,CGCCGCTC,-0.201
9,CCCCACGC,-0.241
10,ATGAGCCA,0.396
11,GGATTAAC,0.234
12,CCCGCCTA,-0.12
13,CGTCTAGC,-0.0946
14,AATAAGAC,0.175
15,AAGCCCGA,-0.0794
16,ATCGACCA,-0.0913
17,CGAGAATC,0.117
18,ACACAATC,0.118
19,TGTCAGAA,-0.00325
20,ATGCAACC,-0.254
21,ACGTTGAA,-0.0933
22,GCTACAAA,-0.00422
